Results reported in the supplement of paper PMC7826260.
This is one part of the list. Cleavage of a single-stranded DNA pool by Rep nickase domains was read by sequencing (1 h at 37 °C, 3 µM enzyme); the outer parts of the 90-letter strands are left off. A value is the log2 ratio of uncut reads to the pool without enzyme; the lower, the more was cut; hits are not called. Shares of all reads are compared; values above 0 arise when much of the pool is cut.

tested on: T1, Rep nickase domain of tomato golden mosaic virus; assay: uncleaved DNA left, log2 of reads against the no-enzyme library (log2 ratio); higher = less cleavage (more negative = more Rep cleavage of the k-mer); sequences stand for … in CTCGTCCG…ACCGGAGA
T1 sequence (residues 1-124, tag not shown): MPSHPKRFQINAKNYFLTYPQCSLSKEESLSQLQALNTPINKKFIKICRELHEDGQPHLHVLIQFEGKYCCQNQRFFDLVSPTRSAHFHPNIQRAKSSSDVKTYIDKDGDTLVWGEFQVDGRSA
Procedure: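 A pool of 90-nt single-stranded DNAs with seven random bases just before the constant AC of the nick site (name = the seven bases) was cut by 3 µM recombinant His6-SUMO-tagged Rep nickase domain (300 nM DNA, 50 mM HEPES pH 8.0, 50 mM NaCl, 1 mM MnCl2, 1 h, 37 °C, three replicates). Uncut DNA was amplified and sequenced.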

Sequence	uncleaved DNA left (log2)
TATCCCG	-0.0819
AGAGAAT	0.157
AAGTCAC	-0.0162
ACTCGGT	0.122
CCTCTAG	0.145
AGATAAT	0.0208
ACATAGT	-0.0413
GAGATCC	0.00485
CTTGGTC	-0.232
GGGGGAT	-0.0713
GCATGAC	0.0103
CGAAAAC	0.0223
TGCTTGA	-0.0352
CTACTAG	-0.00782
GCGTTGG	0.00565
CCGTCTC	-0.198
GGGTATG	-0.0872
TGGCCCC	0.0238
CACAGGG	0.0809
TGCACCA	0.023

Sequence	uncleaved DNA left (log2)
AGGTTGT	0.0506
TTCCTAG	-0.123
CTACCAA	-0.0143
CGGCGCT	0.0198
GGTAACC	0.0548
TAGTGGA	-0.0499
TATCTCT	-0.119
GGACCAA	0.0103
ATCTCCA	-0.00689
TCAGTCA	-0.014
ACGGTCG	-0.0832
TAGGAGC	0.141
CCCAAAC	-0.115
GCAAGTA	0.132
TGCAAGA	0.0731
ATATTTG	-0.137
AGACAAA	0.0425
AAGGCGG	0.138
ATGATGG	0.0476
CAGCCCA	-0.0525
